Measured values taken from patent US11685745B2, “Substituted benzoxazole and benzofuran compounds as PDE7 inhibitors” (Dart NeuroScience, LLC, priority 2017, dated 2023).

These compounds were tested against N-terminal truncated recombinant human PDE7B enzyme (Homo sapiens (Human), UniProt Q9NP56) (assay: biochemical).

`O=C1Nc2c(Cl)cc3nc(C(=O)N4CCNCC4)oc3c2C2(CCCCC2)N1` [Example 211, 5-Chloro-2-(piperazine-1-carbonyl)-7,8-dihydro-6H-spiro[[1,3]oxazolo[5,4-f]quinazoline-9,1′-cyclohexane]-7-one] and `CCN1CCN(C(=O)c2nc3cc(Cl)c4c(c3o2)C2(CCCCC2)NC(=O)N4)CC1` [Example 207, 5-Chloro-2-(4-ethylpiperazine-1-carbonyl)-7,8-dihydro-6H-spiro[[1,3]oxazolo[5,4-f]quinazoline-9,1′-cyclohexane]-7-one] fall in the same range of IC50: 10 to 100 nM for the first, 10 to 100 nM for the second.

`CN(C)C(=O)CN(C)C(=O)c1nc2cc(Cl)c3c(c2o1)C1(CCCCC1)NC(=O)N3` [Example 188, 2-{1-5-Chloro-7-oxo-7,8-dihydro-6H-spiro[[1,3]oxazolo[5,4-f]quinazoline-9,1′-cyclohexane]-2-yl-N-methylformamido}-N,N-dimethylacetamide] and `O=C1Nc2c(Cl)cc3nc(CO)oc3c2C2(CCCCC2)N1` [Example 20, 5′-Chloro-2′-(hydroxymethyl)-6′H-spiro[cyclohexane-1,9′-oxazolo[5,4-f]quinazolin]-7′(8′H)-one] fall in the same range of IC50: 10 to 100 nM for the first, 10 to 100 nM for the second.

`CCC(O)CNC(=O)c1cc2cc(Cl)c3c(c2o1)C1(CCCCC1)NC(=O)N3` (centres unmarked) [Example 263, 5′-Chloro-N-(2-hydroxybutyl)-7′-oxo-7′,8′-dihydro-6′H-spiro[cyclohexane-1,9′-furo[2,3-f]quinazoline]-2′-carboxamide] and `O=C1Nc2c(Cl)cc3cc(C(=O)NCCn4cccn4)oc3c2C2(CCCCC2)N1` [Example 324, 5′-Chloro-7′-oxo-N-[2-(1H-pyrazol-1-yl)ethyl]-7′,8′-dihydro-6′H-spiro[cyclohexane-1,9′-furo[2,3-f]quinazoline]-2′-carboxamide] fall in the same range of IC50: 10 to 100 nM for the first, 10 to 100 nM for the second.

`CN1CCN(Cc2nc3cc(Cl)c4c(c3o2)C2(CCCCC2)NC(=O)N4)CC1=O` [Example 57, 5-Chloro-2-[(4-methyl-3-oxopiperazin-1-yl)methyl]-7,8-dihydro-6H-spiro[[1,3]oxazolo[5,4-f]quinazoline-9,1′-cyclohexane]-7-one] and `COC(=O)[C@@H]1CCN(Cc2nc3cc(Cl)c4c(c3o2)C2(CCCCC2)NC(=O)N4)C1` [Example 158, Methyl (3R)-1-{5-chloro-7-oxo-7,8-dihydro-6H-spiro[[1,3]oxazolo[5,4-f]quinazoline-9,1′-cyclohexane]-2-ylmethyl}pyrrolidine-3-carboxylate] fall in the same range of IC50: 10 to 100 nM for the first, 10 to 100 nM for the second.

`O=C1Nc2c(Cl)cc3cc(C(=O)N4CCCC4c4ccco4)oc3c2C2(CCCCC2)N1` (centres unmarked) [Example 416, 5′-Chloro-2′-[2-(furan-2-yl)pyrrolidine-1-carbonyl]-7′,8′-dihydro-6′H-spiro[cyclohexane-1,9′-furo[2,3-f]quinazoline]-7′-one] and `CN1CCN(C(=O)c2cc3cc(Cl)c4c(c3o2)C2(CCCCC2)NC(=O)N4)CC1` [Example 230, 5′-Chloro-2′-(4-methylpiperazine-1-carbonyl)-7′,8′-dihydro-6′H-spiro[cyclohexane-1,9′-furo[2,3-f]quinazoline]-7′-one] fall in the same range of IC50: 10 to 100 nM for the first, 10 to 100 nM for the second.

First: CCNCc1nc2cc(Cl)c3c(c2o1)C1(CCCCC1)NC(=O)N3 [Example 40, 5-Chloro-2-[(ethylamino)methyl]-7,8-dihydro-6H-spiro[[1,3]oxazolo[5,4-f]quinazoline-9,1′-cyclohexane]-7-one]
Second: CC(C)C(=O)CNCc1nc2cc(Cl)c3c(c2o1)C1(CCCCC1)NC(=O)N3 [Example 106, 5-Chloro-2-{[(3-methyl-2-oxobutyl)amino]methyl}-7,8-dihydro-6H-spiro[[1,3]oxazolo[5,4-f]quinazoline-9,1′-cyclohexane]-7-one]
The IC50 of the first is lower: 10 to 100 nM for the first, 100 to 1000 nM for the second. The first is the more potent here.

`COCC1(NC(=O)c2cc3cc(Cl)c4c(c3o2)C2(CCCCC2)NC(=O)N4)CCOCC1` [Example 388, 5′-Chloro-N-[4-(methoxymethyl)oxan-4-yl]-7′-oxo-7′,8′-dihydro-6′H-spiro[cyclohexane-1,9′-furo[2,3-f]quinazoline]-2′-carboxamide] and `O=C1Nc2c(Cl)cc3cc(C(=O)NC45CC(C4)C5)oc3c2C2(CCCCC2)N1` [Example 382, N-{bicyclo[1.1.1]pentan-1-yl}-5′-chloro-7′-oxo-7′,8′-dihydro-6′H-spiro[cyclohexane-1,9′-furo[2,3-f]quinazoline]-2′-carboxamide] fall in the same range of IC50: 10 to 100 nM for the first, 10 to 100 nM for the second.

First: COC1CCN(Cc2cc3cc(Cl)c4c(c3o2)C2(CCCCC2)NC(=O)N4)CC1 [Example 485, 5′-Chloro-2′-[(4-methoxypiperidin-1-yl)methyl]-7′,8′-dihydro-6′H-spiro[cyclohexane-1,9′-furo[2,3-f]quinazoline]-7′-one]
Second: CC(=O)NC1CCN(Cc2cc3cc(Cl)c4c(c3o2)C2(CCCCC2)NC(=O)N4)CC1 [Example 560, N-(1-{5′-Chloro-7′-oxo-7′,8′-dihydro-6′H-spiro[cyclohexane-1,9′-furo[2,3-f]quinazoline]-2′-ylmethyl}piperidin-4-yl)acetamide]
The IC50 of the first is lower: 10 to 100 nM for the first, 100 to 1000 nM for the second. The first is the more potent here.

`O=C1Nc2c(Cl)cc3cc(CN4CCCC(CO)C4)oc3c2C2(CCCCC2)N1` (centres unmarked) [Example 565, 5′-Chloro-2′-{[3-(hydroxymethyl)piperidin-1-yl]methyl}-7′,8′-dihydro-6′H-spiro[cyclohexane-1,9′-furo[2,3-f]quinazoline]-7′-one] and `O=C1Nc2c(Cl)cc3cc(CN4CCCC(O)C4)oc3c2C2(CCCCC2)N1` (centres unmarked) [Example 501, 5′-Chloro-2′-{(3-hydroxypiperidin-1-yl)methyl}-7′,8′-dihydro-6′H-spiro[cyclohexane-1,9′-furo[2,3-f]quinazoline]-7′-one] fall in the same range of IC50: 100 to 1000 nM for the first, 100 to 1000 nM for the second.

`O=C1Nc2c(Cl)cc3nc(CN[C@@H]4CCOC4)oc3c2C2(CCCCC2)N1` [Example 155, 5-Chloro-2-({[(3R)-oxolan-3-yl]amino}methyl)-7,8-dihydro-6H-spiro[[1,3]oxazolo[5,4-f]quinazoline-9,1′-cyclohexane]-7-one] and `O=C1Nc2c(Cl)cc3nc(CNC4CCC(F)(F)CC4)oc3c2C2(CCCCC2)N1` [Example 107, 5-Chloro-2-{[(4,4-difluorocyclohexyl)amino]methyl}-7,8-dihydro-6H-spiro[[1,3]oxazolo[5,4-f]quinazoline-9,1′-cyclohexane]-7-one] fall in the same range of IC50: 10 to 100 nM for the first, 10 to 100 nM for the second.

`CCCNCc1cc2cc(Cl)c3c(c2o1)C1(CCCCC1)NC(=O)N3` [Example 540, 5′-Chloro-2′-[(propylamino)methyl]-7′,8′-dihydro-6′H-spiro[cyclohexane-1,9′-furo[2,3-f]quinazoline]-7′-one] and `CCN(CCN(C)C)C(=O)c1cc2cc(Cl)c3c(c2o1)C1(CCCCC1)NC(=O)N3` [Example 260, 5′-Chloro-N-[2-(dimethylamino)ethyl]-N-ethyl-7′-oxo-7′,8′-dihydro-6′H-spiro[cyclohexane-1,9′-furo[2,3-f]quinazoline]-2′-carboxamide] fall in the same range of IC50: 100 to 1000 nM for the first, 100 to 1000 nM for the second.

First: O=C1Nc2c(Cl)cc3cc(C(=O)N4CCC5(CC4)OCCc4ccccc45)oc3c2C2(CCCCC2)N1 [Example 351, 5′-Chloro-2′-({3,4-dihydrospiro[2-benzopyran-1,4′-piperidine]-1′-yl}carbonyl)-7′,8′-dihydro-6′H-spiro[cyclohexane-1,9′-furo[2,3-f]quinazoline]-7′-one]
Second: O=C1Nc2c(Cl)cc3cc(C(=O)Nc4ccc(N5CCC(O)CC5)cc4)oc3c2C2(CCCCC2)N1 [Example 325, 5′-Chloro-N-[4-(4-hydroxypiperidin-1-yl)phenyl]-7′-oxo-7′,8′-dihydro-6′H-spiro[cyclohexane-1,9′-furo[2,3-f]quinazoline]-2′-carboxamide]
The IC50 of the first is higher: 100 to 1000 nM for the first, 10 to 100 nM for the second.

`O=C1Nc2c(Cl)cc3cc(C(=O)NCCN4CCCC4)oc3c2C2(CCCCC2)N1` [Example 259, 5′-Chloro-7′-oxo-N-[2-(pyrrolidin-1-yl)ethyl]-7′,8′-dihydro-6′H-spiro[cyclohexane-1,9′-furo[2,3-f]quinazoline]-2′-carboxamide] and `O=C1Nc2c(Cl)cc3cc(C(=O)NCCn4ccnc4)oc3c2C2(CCCCC2)N1` [Example 423, 5′-Chloro-N-[2-(1H-imidazol-1-yl)ethyl]-7′-oxo-7′,8′-dihydro-6′H-spiro[cyclohexane-1,9′-furo[2,3-f]quinazoline]-2′-carboxamide] fall in the same range of IC50: 100 to 1000 nM for the first, 100 to 1000 nM for the second.

First: CC(C)N(Cc1cc2cc(Cl)c3c(c2o1)C1(CCCCC1)NC(=O)N3)CC1CCC(=O)N1 (centres unmarked) [Example 490, 5′-Chloro-2′-({[(5-oxopyrrolidin-2-yl)methyl](propan-2-yl)amino}methyl)-7′,8′-dihydro-6′H-spiro[cyclohexane-1,9′-furo[2,3-f]quinazoline]-7′-one]
Second: CC(C)N(C(=O)c1cc2cc(Cl)c3c(c2o1)C1(CCCCC1)NC(=O)N3)C(C)C [Example 412, 5′-Chloro-7′-oxo-N,N-bis(propan-2-yl)-7′,8′-dihydro-6′H-spiro[cyclohexane-1,9′-furo[2,3-f]quinazoline]-2′-carboxamide]
The IC50 of the first is higher: 100 to 1000 nM for the first, 10 to 100 nM for the second. The second is the more potent here.

First: O=C1Nc2c(Cl)cc3cc(C(=O)NCCOc4ccccc4)oc3c2C2(CCCCC2)N1 [Example 352, 5′-Chloro-7′-oxo-N-(2-phenoxyethyl)-7′,8′-dihydro-6′H-spiro[cyclohexane-1,9′-furo[2,3-f]quinazoline]-2′-carboxamide]
Second: CC(C)N1CCC(NC(=O)c2cc3cc(Cl)c4c(c3o2)C2(CCCCC2)NC(=O)N4)CC1 [Example 455, 5′-Chloro-7′-oxo-N-[1-(propan-2-yl)piperidin-4-yl]-7′,8′-dihydro-6′H-spiro[cyclohexane-1,9′-furo[2,3-f]quinazoline]-2′-carboxamide]
The IC50 of the first is lower: 10 to 100 nM for the first, 100 to 1000 nM for the second.

First: CC(C)n1cnnc1CN(C)C(=O)c1cc2cc(Cl)c3c(c2o1)C1(CCCCC1)NC(=O)N3 [Example 400, 5′-Chloro-N-methyl-7′-oxo-N-{[4-(propan-2-yl)-4H-1,2,4-triazol-3-yl]methyl}-7′,8′-dihydro-6′H-spiro[cyclohexane-1,9′-furo[2,3-f]quinazoline]-2′-carboxamide]
Second: O=C1Nc2c(Cl)cc3nc(CNCC(F)(F)CO)oc3c2C2(CCCCC2)N1 [Example 164, 5-Chloro-2-{[(2,2-difluoro-3-hydroxypropyl)amino]methyl}-7,8-dihydro-6H-spiro[[1,3]oxazolo[5,4-f]quinazoline-9,1′-cyclohexane]-7-one]
The IC50 of the first is higher: 100 to 1000 nM for the first, 10 to 100 nM for the second.
